{"source": "patent US20220213030A1", "about": "“AMINOGUANIDINE HYDRAZONES AS RETROMER STABILIZERS USEFUL FOR TREATING NEUROLOGICAL DISEASES” (OSPEDALE SAN RAFFAELE SRL, priority 2019, published 2022)", "key": {"[1]": {"test_system": "Neuro2a cells receiving H2O2", "test": "H2O2-induced cell death in Neuro2a cells", "type": "cell-based, mouse", "conditions": "compound 10 μM, H2O2 200 μM, 48 hours", "description": "We tested the specificity of compound 2a in an assay based on H2O2-induced chromosomal breaks that lead to DNA fragmentation and cell death. In principle such DNA lesions are the cause of cell death according to a process that is not influenced by the retromer. Thus, our leads should not be able to modulate rates cell survival in Neuro2a cells receiving H2O2. We incubated Neuro2a cells with 200 μM of H2O2 along with compounds 2a, 2c, 2d and 2g (10 μM).\nCell survival experiments were run on 96-well plates using Cell Counting Kit-8 (CCK8) survival kit (96992-Sigma) according the manufacturer's recommendations. Compound 2a cytotoxicity was tested on Neuro2a cells receiving increasing amount of compound 2a (1, 10, 50, 100, 200, 500 and 1000 μM) for 48 hours."}, "[2]": {"target": "VPS35 (Mus musculus, UniProt Q9EQH3+Q9QZ88)", "test": "VPS35 MFI in NeuN+ MNs of G93A mice", "type": "in vivo", "parameters": "endogenous in cells; host or cells: Neuro2a", "conditions": "10 mg/kg, day 100, versus vehicle-treated G93A", "text": "We next assayed retromer proteins labelling sections of mice sacrificed at day 100 for VPS35 and NeuN. […] Similarly, we observed that VPS26 levels were increased in G93A mice receiving compound 2a (FIG. 11B). We further corroborated our experimental finding observing that compound 2a increased retromer functionality. The cation-independent mannose 6-phosphate receptor (CI-MPR) is a cargo (Arighi et al., 2004) of the retromer complex that is unstable in VPS26 knockout cells (Seaman 2004). We observed a substantial reduction of CI-MPR MFI levels in MNs of vehicle-treated G93A mice when compared with WT litters (FIG. 11C). […]\nFluorescence intensity levels of VPS35, VPS26, Sortilin, CTSD and Ubiquitin were calculated using NHI-Image J software (US National Institutes of Health) according to the following protocol: stacks of confocal images were used to generate the maximal projections (Las-X) and then post-processed by NHI-Image J to crop single NeuN^+ MNs from the ventral horn of the spinal cord. We next performed background (calculated on adjacent slices only receiving secondary antibodies) subtraction for each channel, before applying the NHI-Image J mean filter (with radius 2.0 pixels) to calculate mean NeuN fluorescence levels in individual MN. […] On this selected ROI, we calculated mean fluoresce levels (MFI) of each protein."}, "[3]": {"test_system": "G93A mice", "test": "Rotarod motor function in G93A mice", "type": "in vivo, mouse", "description": "Having established that compound 2a crosses the BBB we started to treat mice carrying the G93A mutant form of the SOD1. Starting from day 30, G93A mice and their WT litters were daily injected with compound 2a (10 mg/kg) or vehicle. […] Indeed, starting from day 80 the latency to fall progressively diminished in vehicle-treated G93A. Indeed we recorded a 30% reduction of this parameter at day 100 when compared to values recorded at day 50 (FIG. 8C).\nSOD1 mutations increase the propensity of this protein to aggregate in cells (Johnston 2000). We checked whether compound 2a could reduce the accumulation of G93A aggregates in vivo. Starting at post-natal day 83, we injected G93A mice and WT littermates daily with compound 2a (10 mg/kg). We scored motor performances in both vehicle- and compound 2a-treated G93A mice until day 103. […] At day 103, we resolved SC protein extracts by blue-native polyacrylamide gel electrophoresis, and probing these gels with anti-SOD1 antibodies we observed high molecular weight smears in G93A mice that were completely absent in WT litters. […]\nMotor activity of G93A mice was assessed by rotarod. […] For each session five mice were placed on an accelerating rotor (4-40 rpm) and the latency to fall was recorded, with a maximum limit for individual animal set at 900 s."}, "[4]": {"test": "Tolerability in mice injected with compound 2a (adverse events, body weight)", "type": "in vivo", "conditions": "10 mg/kg daily from day 30, versus vehicle"}}, "data": [{"smiles": "N=C(N)NN=Cc1cccc(C=NNC(=N)N)c1", "note": "[Compound 2a, 1,3-Bis-amino guanidine phenyl hydrazone]", "values": [{"measurement": "cell survival with H2O2 with or without compound", "setting": "[1]", "value": "did not result in any significant difference"}, {"measurement": "fluorescent intensity levels of VPS35 (MFI)", "setting": "[2]", "value": "significantly increased"}, {"measurement": "locomotion performances (latency to fall, accelerating rotarod)", "setting": "[3]; 10 mg/kg daily from day 30", "value": "substantial amelioration of the locomotion performances"}, {"measurement": "motor performances (latency to fall)", "setting": "[3]; 10 mg/kg daily from day 83 to day 103", "value": "general attenuation of motor deficits"}, {"measurement": "body weight", "setting": "[4]", "value": "small drop of the body weight when compared with mice receiving the vehicle treatment, although such reduction did not reach statistical significance"}]}]}
